According to the GPR68 mutational scans of Howard et al. (2025):
The least precise scores are not listed. Not listed are two conditions whose scores span a narrow range. Names with del lack the residues named; names with ins carry added residues between the positions named. For some of these results: The data file names ogerin without a concentration.

B1: GPR68, Q15743 (parent)
chain: MGNITADNSSMSCTIDHTIHQTLAPVVYVTVLVVGFPANCLSLYFGYLQIKARNELGVYLCNLTVADLFYICSLPFWLQYVLQHDNWSHGDLSCQVCGILLYENIYISVGFLCCISVDRYLAVAHPFRFHQFRTLKAAVGVSVVIWAKELLTSIYFLMHEEVIEDENQHRVCFEHYPIQAWQRAINYYRFLVGFLFPICLLLASYQGILRAVRRSHGTQKSRKDQIQRLVLSTVVIFLACFLPYHVLLLVRSVWEASCDFAKGVFNAYHFSLLLTSFNCVADPVLYCFVSETTHRDLARLRGACLAFLTCSRTGRAREAYPLGAPEASGKSGAQGEEPELLTKLHPAFQTPNSPGSGGFPTGRLA

How the values were obtained:
[1] = variants of: B1; experiment: cAMP reporter score (Enrich2 score, wild type = 0); higher = more signal; HEK293T, FACS bins; settings: modulator: ogerin
[2] = variants of: B1; experiment: surface expression score (Enrich2 score, wild type = 0); higher = more signal; HEK293T, FACS bins

What does the source list for R133_T134insG?
cAMP reporter score ([1]; pH 6): -2.78; cAMP reporter score ([1]; pH 6.5): -1.51; surface expression score [2]: -0.447

Which cAMP reporter score ([1]; pH 6) does the source give for MGNITADNSSMSCTIDHTIHQTLAPVVYVTVLVVGFPANCLSLYFGYLQIKARNELGVYLCNLTVADLFYICSLPFWLQYVLQHDNWSHGDLSCQVCGILLYENIYISVGFLCCISVDRYLAVAHPFRFHQFRTYKAAVGVSVVIWAKELLTSIYFLMHEEVIEDENQHRVCFEHYPIQAWQRAINYYRFLVGFLFPICLLLASYQGILRAVRRSHGTQKSRKDQIQRLVLSTVVIFLACFLPYHVLLLVRSVWEASCDFAKGVFNAYHFSLLLTSFNCVADPVLYCFVSETTHRDLARLRGACLAFLTCSRTGRAREAYPLGAPEASGKSGAQGEEPELLTKLHPAFQTPNSPGSGGFPTGRLA [L135Y] here?
The cAMP reporter score was -0.818.

What about the cAMP reporter score ([1]; pH 6.5) of the same variant?
The cAMP reporter score was -1.16.

Which cAMP reporter score ([1]; pH 6) does the source give for MGNITADNSSMSCTIDHTIHQTLAPVVYVTVLVVGFPANCLSLYFGYLQIKARNELGVYLCNLTVADLFYICSLPFWLQYVLQHDNWSHGDLSCQVCGILLYENIYISVGFLCCISVDRYLAVAHPFRFHQFRTLKMAVGVSVVIWAKELLTSIYFLMHEEVIEDENQHRVCFEHYPIQAWQRAINYYRFLVGFLFPICLLLASYQGILRAVRRSHGTQKSRKDQIQRLVLSTVVIFLACFLPYHVLLLVRSVWEASCDFAKGVFNAYHFSLLLTSFNCVADPVLYCFVSETTHRDLARLRGACLAFLTCSRTGRAREAYPLGAPEASGKSGAQGEEPELLTKLHPAFQTPNSPGSGGFPTGRLA [A137M] here?
Its cAMP reporter score is 0.666.

And the cAMP reporter score ([1]; pH 6.5)?
Its cAMP reporter score is 0.072.

What about the surface expression score [2] of the same variant?
Its surface expression score is -0.59.

Which results are given for MGNITADNSSMSCTIDHTIHQTLAPVVYVTVLVVGFPANCLSLYFGYLQIKARNELGVYLCNLTVADLFYICSLPFWLQYVLQHDNWSHGDLSCQVCGILLYENIYISVGFLCCISVDRYLAVAHPFRFHQFRTLKAAVGVSVVIWAKKLLTSIYFLMHEEVIEDENQHRVCFEHYPIQAWQRAINYYRFLVGFLFPICLLLASYQGILRAVRRSHGTQKSRKDQIQRLVLSTVVIFLACFLPYHVLLLVRSVWEASCDFAKGVFNAYHFSLLLTSFNCVADPVLYCFVSETTHRDLARLRGACLAFLTCSRTGRAREAYPLGAPEASGKSGAQGEEPELLTKLHPAFQTPNSPGSGGFPTGRLA [E149K]?
cAMP reporter score ([1]; pH 6): -1.03; cAMP reporter score ([1]; pH 6.5): -0.432

Which results are given for MGNITADNSSMSCTIDHTIHQTLAPVVYVTVLVVGFPANCLSLYFGYLQIKARNELGVYLCNLTVADLFYICSLPFWLQYVLQHDNWSHGDLSCQVCGILLYENIYISVGFLCCISVDRYLAVAHPFRFHQFRTLKAAVGVSVVIWAKELLVSIYFLMHEEVIEDENQHRVCFEHYPIQAWQRAINYYRFLVGFLFPICLLLASYQGILRAVRRSHGTQKSRKDQIQRLVLSTVVIFLACFLPYHVLLLVRSVWEASCDFAKGVFNAYHFSLLLTSFNCVADPVLYCFVSETTHRDLARLRGACLAFLTCSRTGRAREAYPLGAPEASGKSGAQGEEPELLTKLHPAFQTPNSPGSGGFPTGRLA [T152V]?
cAMP reporter score ([1]; pH 6): -0.205; cAMP reporter score ([1]; pH 6.5): -1.61; surface expression score [2]: -0.872
